According to the supplement of paper PMC8728848:
This is one part of the list.

Assays:
Assay in all cases: glycan array binding signal (z-score within array); higher = stronger binding
Settings in all cases: glycan notation: IUPAC condensed, linker removed
[1] = target: Gal(b1-2)Gal
In short: (§1)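 Negative Z-scores can be read as non-binding. The Z-score is calculated within each array and then averaged across arrays of one protein sequence at different concentrations or buffers and across linkers. Arrays, 3228 in all, were curated from the Consortium for Functional Glycomics database and kept only where the protein sequence was available.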

[2] = target: Gal(b1-3)Gal
In short: as §1

[3] = target: Gal(b1-3)Gal(b1-4)GlcNAc
In short: as §1

[4] = target: Gal(b1-3)GalNAc
In short: as §1

[5] = target: Gal(b1-3)GalNAc(a1-3)[Fuc(a1-2)]Gal(b1-4)Glc
In short: as §1

[6] = target: Gal(b1-3)GalNAc(a1-3)[Fuc(a1-2)]Gal(b1-4)GlcNAc
In short: as §1

[7] = target: Gal(b1-3)GalNAc(b1-3)Gal
In short: as §1

[8] = target: Gal(b1-3)GalNAc(b1-3)Gal(a1-4)Gal(b1-4)Glc
In short: as §1

[9] = target: Gal(b1-3)GalNAc(b1-4)Gal(b1-4)Glc
In short: as §1

[10] = target: Gal(b1-3)GalNAc(b1-4)[Neu5Ac(a2-3)]Gal(b1-4)Glc
In short: as §1

[11] = target: Gal(b1-3)GlcNAc
In short: as §1

[12] = target: Gal(b1-3)GlcNAc(a1-3)Gal(b1-4)GlcNAc
In short: as §1

[13] = target: Gal(b1-3)GlcNAc(a1-6)Gal(b1-4)GlcNAc
In short: as §1

[14] = target: Gal(b1-3)GlcNAc(b1-2)Man
In short: as §1

[15] = target: Gal(b1-3)GlcNAc(b1-2)Man(a1-3)[Gal(b1-3)GlcNAc(b1-2)Man(a1-6)]Man(b1-4)GlcNAc(b1-4)GlcNAc
In short: as §1

[16] = target: Gal(b1-3)GlcNAc(b1-2)Man(a1-3)[Gal(b1-3)GlcNAc(b1-2)Man(a1-6)]Man(b1-4)GlcNAc(b1-4)[Fuc(a1-6)]GlcNAc
In short: as §1

[17] = target: Gal(b1-3)GlcNAc(b1-2)Man(a1-3)[GlcNAc(b1-4)][Gal(b1-3)GlcNAc(b1-2)Man(a1-6)]Man(b1-4)GlcNAc(b1-4)GlcNAc
In short: as §1

[18] = target: Gal(b1-3)GlcNAc(b1-2)[Gal(b1-3)GlcNAc(b1-6)]Man(a1-6)[Gal(b1-3)GlcNAc(b1-2)Man(a1-3)]Man(b1-4)GlcNAc(b1-4)GlcNAc
In short: as §1

[19] = target: Gal(b1-3)GlcNAc(b1-3)Gal(b1-3)GlcNAc
In short: as §1

[20] = target: Gal(b1-3)GlcNAc(b1-3)Gal(b1-4)Glc
In short: as §1

[21] = target: Gal(b1-3)GlcNAc(b1-3)Gal(b1-4)GlcNAc
In short: as §1

[22] = target: Gal(b1-3)GlcNAc(b1-3)Gal(b1-4)GlcNAc(b1-2)Man(a1-3)[Gal(b1-3)GlcNAc(b1-3)Gal(b1-4)GlcNAc(b1-2)Man(a1-6)]Man(b1-4)GlcNAc(b1-4)GlcNAc
In short: as §1

[23] = target: Gal(b1-3)GlcNAc(b1-3)Gal(b1-4)GlcNAc(b1-2)[Gal(b1-3)GlcNAc(b1-3)Gal(b1-4)GlcNAc(b1-6)]Man(a1-6)[Gal(b1-3)GlcNAc(b1-3)Gal(b1-4)GlcNAc(b1-2)Man(a1-3)]Man(b1-4)GlcNAc(b1-4)[Fuc(a1-6)]GlcNAc
In short: as §1

[24] = target: Gal(b1-3)GlcNAc(b1-3)Gal(b1-4)GlcNAc(b1-3)Gal(b1-4)GlcNAc(b1-2)[Gal(b1-3)GlcNAc(b1-3)Gal(b1-4)GlcNAc(b1-3)Gal(b1-4)GlcNAc(b1-6)]Man(a1-6)[Gal(b1-3)GlcNAc(b1-3)Gal(b1-4)GlcNAc(b1-3)Gal(b1-4)GlcNAc(b1-2)Man(a1-3)]Man(b1-4)GlcNAc(b1-4)[Fuc(a1-6)]GlcNAc
In short: as §1

[25] = target: Gal(b1-3)GlcNAc(b1-3)Gal(b1-4)GlcNAc(b1-6)[Gal(b1-3)GlcNAc(b1-3)]Gal(b1-4)Glc
In short: as §1

[26] = target: Gal(b1-3)GlcNAc(b1-3)Gal(b1-4)[Fuc(a1-3)]GlcNAc
In short: as §1

[27] = target: Gal(b1-3)GlcNAc(b1-3)Gal(b1-4)[Fuc(a1-3)]GlcNAc(b1-6)[Gal(b1-3)GlcNAc(b1-3)]Gal(b1-4)Glc
In short: as §1

[28] = target: Gal(b1-3)GlcNAc(b1-3)GalNAc
In short: as §1

[29] = target: Gal(b1-3)GlcNAc(b1-6)Gal(b1-4)GlcNAc
In short: as §1

[30] = target: Gal(b1-3)GlcNAc(b1-6)GalNAc
In short: as §1

[31] = target: Gal(b1-3)GlcNAc(b1-6)[Gal(b1-3)]GalNAc
In short: as §1

[32] = target: Gal(b1-3)GlcNAc6S
In short: as §1

[33] = target: Gal(b1-3)[Fuc(a1-4)]GlcNAc
In short: as §1

[34] = target: Gal(b1-3)[Fuc(a1-4)]GlcNAc(b1-2)Man
In short: as §1

[35] = target: Gal(b1-3)[Fuc(a1-4)]GlcNAc(b1-2)Man(a1-3)[Gal(b1-3)[Fuc(a1-4)]GlcNAc(b1-2)Man(a1-6)]Man(b1-4)GlcNAc(b1-4)[Fuc(a1-6)]GlcNAc
In short: as §1

[36] = target: Gal(b1-3)[Fuc(a1-4)]GlcNAc(b1-3)Gal(b1-3)[Fuc(a1-4)]GlcNAc
In short: as §1

[37] = target: Gal(b1-3)[Fuc(a1-4)]GlcNAc(b1-3)Gal(b1-4)[Fuc(a1-3)]GlcNAc
In short: as §1

[38] = target: Gal(b1-3)[Fuc(a1-4)]GlcNAc(b1-6)GalNAc
In short: as §1

[39] = target: Gal(b1-3)[GlcNAc(b1-6)]GalNAc
In short: as §1

[40] = target: Gal(b1-3)[Neu5Ac(a2-6)]GalNAc
In short: as §1

[41] = target: Gal(b1-3)[Neu5Ac(a2-6)]GlcNAc(b1-4)Gal(b1-4)Glc
In short: as §1

[42] = target: Gal(b1-3)[Neu5Ac(b2-6)]GalNAc
In short: as §1

[43] = target: Gal(b1-4)Gal
In short: as §1

[44] = target: Gal(b1-4)GalNAc(a1-3)[Fuc(a1-2)]Gal(b1-4)GlcNAc
In short: as §1

[45] = target: Gal(b1-4)GalNAc(b1-3)[Fuc(a1-2)]Gal(b1-4)GlcNAc
In short: as §1

B1: LecB LY19 (Pseudomonas aeruginosa) (protein)
chain: MATQGVFTLPANTQFGVTAFANSAGTQTVNVQVNNETVATFTGQSTNNGIIGSKVLNSGGGGKVQILVSVNGRSSDLVSAQVILANELNFALVGSEDSTDNDYNDAVVVINWPLG
glycan array binding signal (z-score) [1]: -0.514
glycan array binding signal (z-score) [2]: -0.53
glycan array binding signal (z-score) [3]: -0.55
glycan array binding signal (z-score) [4]: -0.413
glycan array binding signal (z-score) [5]: -0.512
glycan array binding signal (z-score) [6]: -0.492
glycan array binding signal (z-score) [7]: -0.551
glycan array binding signal (z-score) [8]: -0.534
glycan array binding signal (z-score) [9]: -0.542
glycan array binding signal (z-score) [10]: -0.485
glycan array binding signal (z-score) [11]: -0.552
glycan array binding signal (z-score) [12]: -0.546
glycan array binding signal (z-score) [13]: -0.55
glycan array binding signal (z-score) [14]: -0.509
glycan array binding signal (z-score) [15]: -0.201
glycan array binding signal (z-score) [16]: 0.173
glycan array binding signal (z-score) [17]: -0.306
glycan array binding signal (z-score) [18]: -0.314
glycan array binding signal (z-score) [19]: -0.554
glycan array binding signal (z-score) [20]: -0.352
glycan array binding signal (z-score) [21]: -0.553
glycan array binding signal (z-score) [22]: -0.429
glycan array binding signal (z-score) [23]: 0.152
glycan array binding signal (z-score) [24]: 0.828
glycan array binding signal (z-score) [25]: -0.489
glycan array binding signal (z-score) [26]: 0.092
glycan array binding signal (z-score) [27]: 0.2
glycan array binding signal (z-score) [28]: -0.544
glycan array binding signal (z-score) [29]: -0.55
glycan array binding signal (z-score) [30]: -0.547
glycan array binding signal (z-score) [31]: -0.447
glycan array binding signal (z-score) [32]: -0.533
glycan array binding signal (z-score) [33]: 2.35
glycan array binding signal (z-score) [34]: -0.046
glycan array binding signal (z-score) [35]: -0.151
glycan array binding signal (z-score) [36]: 3.35
glycan array binding signal (z-score) [37]: 4.05
glycan array binding signal (z-score) [38]: 0.57
glycan array binding signal (z-score) [39]: -0.544
glycan array binding signal (z-score) [40]: -0.552
glycan array binding signal (z-score) [41]: -0.537
glycan array binding signal (z-score) [42]: -0.555
glycan array binding signal (z-score) [43]: -0.531
glycan array binding signal (z-score) [44]: -0.449
glycan array binding signal (z-score) [45]: -0.46
